Source: PMC4336329 (PLoS ONE, 2015)
In all, about 310,000 compounds went through this assay and about 2,200 (0.71%) showed an effect of 50% or more. Effects have a minus sign here. The list shows a part of the results.

The molecules below were run against human ether-à-go-go-related gene (hERG) potassium channel (human, UniProt Q12809) (assay: primary screen, population patch clamp on CHO cells stably expressing hERG).
Sequence of human ether-à-go-go-related gene (hERG) potassium channel (Q12809 whole entry, looked up): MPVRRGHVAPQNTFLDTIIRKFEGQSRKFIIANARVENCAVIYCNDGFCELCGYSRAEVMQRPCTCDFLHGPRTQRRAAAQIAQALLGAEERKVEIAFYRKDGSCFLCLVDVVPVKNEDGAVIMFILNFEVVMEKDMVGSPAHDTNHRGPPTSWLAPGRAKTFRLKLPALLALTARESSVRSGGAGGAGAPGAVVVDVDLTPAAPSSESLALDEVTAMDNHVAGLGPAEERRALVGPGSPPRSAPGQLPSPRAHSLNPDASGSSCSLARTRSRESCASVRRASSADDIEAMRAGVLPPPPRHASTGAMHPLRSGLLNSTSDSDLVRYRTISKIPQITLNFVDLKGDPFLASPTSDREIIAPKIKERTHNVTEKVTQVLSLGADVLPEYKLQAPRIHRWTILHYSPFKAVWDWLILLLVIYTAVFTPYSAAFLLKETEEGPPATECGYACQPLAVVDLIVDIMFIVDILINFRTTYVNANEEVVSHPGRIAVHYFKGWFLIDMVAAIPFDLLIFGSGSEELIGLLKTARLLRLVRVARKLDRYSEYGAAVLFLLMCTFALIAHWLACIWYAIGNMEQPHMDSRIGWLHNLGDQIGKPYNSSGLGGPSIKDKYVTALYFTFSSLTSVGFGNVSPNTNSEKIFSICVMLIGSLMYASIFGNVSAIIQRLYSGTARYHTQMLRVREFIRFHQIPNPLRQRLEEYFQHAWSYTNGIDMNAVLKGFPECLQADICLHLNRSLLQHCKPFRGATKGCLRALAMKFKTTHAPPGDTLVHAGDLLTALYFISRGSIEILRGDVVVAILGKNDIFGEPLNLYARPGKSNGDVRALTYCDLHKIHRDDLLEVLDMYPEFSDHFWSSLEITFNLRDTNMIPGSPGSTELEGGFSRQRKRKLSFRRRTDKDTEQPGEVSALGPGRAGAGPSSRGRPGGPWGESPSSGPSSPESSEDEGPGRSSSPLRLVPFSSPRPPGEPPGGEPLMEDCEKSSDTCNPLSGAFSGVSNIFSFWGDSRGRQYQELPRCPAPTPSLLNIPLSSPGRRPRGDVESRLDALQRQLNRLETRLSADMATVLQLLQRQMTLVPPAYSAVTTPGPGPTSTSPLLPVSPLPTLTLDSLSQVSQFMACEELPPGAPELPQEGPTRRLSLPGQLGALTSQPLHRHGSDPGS

Going from Cc1nc2n(n1)CC(O)CS2 (stereo not shown) to CC1CCN(c2nc3nonc3nc2Nc2ccc(F)cc2)CC1, the “hERG current change (%, negative = inhibition) at 1uM” value falls from 9.54% to -10.8%.

Compared with CCOC(=O)Cn1c(-c2ccccc2)ccc(C#N)c1=O, NC(=O)NC(=O)COC(=O)c1ccc2c(c1)C(=O)N(Cc1ccccc1)C2=O is higher in “hERG current change (%, negative = inhibition) at 1uM” value: 12.8% for the first, 14.7% for the second.

Compared with Fc1cccc(CNc2ncnc3cc(Cl)ccc23)c1F, N#Cc1c(-c2ccco2)nc(SCc2ccc(F)cc2)[nH]c1=O is lower in “hERG current change (%, negative = inhibition) at 1uM” value: 3.49% for the first, -3.33% for the second.

Going from CCOc1ccccc1NC(=O)C(C)N1C(=O)c2ccccc2S1(=O)=O (stereo not shown) to COc1ccccc1NC(=O)c1cccnc1, the “hERG current change (%, negative = inhibition) at 1uM” value rises from 3.71% to 12%.

Going from Cc1cc(C)c(S(=O)(=O)NCCCN2CCOCC2)cc1Br to COc1ccccc1CCCNC(=O)C1CCC(=O)N(CCN2CCOCC2)C1 (stereo not shown), the “hERG current change (%, negative = inhibition) at 1uM” value falls from 8.21% to 2.42%.

Compared with O=c1cc(O)c2ccc(O)cc2o1, O=C(O)c1ccc(N=c2oc3cc(O)ccc3cc2C(=O)NCc2ccccc2)cc1 is lower in “hERG current change (%, negative = inhibition) at 1uM” value: 16.5% for the first, 7.23% for the second.

Compared with O=C(CCCN=C1NS(=O)(=O)c2ccccc21)OCC(=O)c1ccc(Br)cc1, COc1ccc(CNC(=O)C(=O)NCC2CCCN2S(=O)(=O)c2ccccc2)cc1 (stereo not shown) is lower in “hERG current change (%, negative = inhibition) at 1uM” value: 4.3% for the first, -5.82% for the second.

Going from COc1ccc(C)cc1S(=O)(=O)N(C)CC(=O)NCc1ccccn1 to Cc1ccc(S(=O)(=O)CCSc2cccc(C(=O)O)c2)cc1, the “hERG current change (%, negative = inhibition) at 1uM” value rises from 15% to 16%.

First: CCCNC(=O)Nc1ccccc1SC
Second: CC(C)(C)C(=O)NC(=S)NCCc1ccccc1
The “hERG current change (%, negative = inhibition) at 1uM” value of the first is higher: 7.96% for the first, 6.02% for the second.

Going from O=S(=O)(NCc1ccccc1)c1ccc(S(=O)(=O)N2CCCCC2)cc1 to O=C(Nc1ccccc1)c1ccc(F)c(S(=O)(=O)N2CCOCC2)c1, the “hERG current change (%, negative = inhibition) at 1uM” value rises from -0.125% to 13.9%.

Compared with O=C(O)/C=C\C(=O)N1CCc2ccccc21, CCOC(=O)Nc1ccc2c(c1)N(C(=O)N(C)C)c1ccccc1CC2 is lower in “hERG current change (%, negative = inhibition) at 1uM” value: 16.9% for the first, 0.0121% for the second.

Going from CC1CCCC(NC(=O)c2ccc3c(c2)NC(=O)CS3)C1C (stereo not shown) to Cc1ccc2nc(S(=O)(=O)O)[nH]c2c1, the “hERG current change (%, negative = inhibition) at 1uM” value falls from 10.6% to -5.26%.

Going from COc1ccc(CC(=O)NC(C)CCc2ccccc2)cc1 (stereo not shown) to COc1ccc(-n2cc(-c3ccccc3)[n+]3c2CCCCC3)cc1.[Br-], the “hERG current change (%, negative = inhibition) at 1uM” value falls from 14% to -0.434%.

First: Cc1cccc(OP(=O)(Nc2ccc(F)cc2)Oc2cccc(C)c2)c1
Second: CCc1cccc(CC)c1NC(=S)Nc1ccc2cn[nH]c2c1
The “hERG current change (%, negative = inhibition) at 1uM” value of the first is higher: 9.75% for the first, 4.51% for the second.

First: CC(=O)c1c(N)n(C)c(=O)n(C)c1=O
Second: Cc1c(C)c2ccc(OCC(=O)Nc3ccc(S(N)(=O)=O)cc3)c(C)c2oc1=O
The “hERG current change (%, negative = inhibition) at 1uM” value of the first is lower: 3.56% for the first, 20.1% for the second.

First: O=C(/C=C/c1cc(Br)ccc1F)Nc1cccnc1
Second: O=C(Cn1ccc(C(F)(F)F)n1)NNC(=O)c1cccnc1
The “hERG current change (%, negative = inhibition) at 1uM” value of the first is higher: 15% for the first, 2.73% for the second.

Going from CCOc1ccccc1N1CCN(C(=O)c2c(Cl)cnn2C)CC1 to COc1cc(OC)cc(C(=O)N2CCN(c3ccccc3F)CC2)c1, the “hERG current change (%, negative = inhibition) at 1uM” value falls from 6.85% to 4.21%.

Compared with CN(C)c1ccc(C2CC(=O)OC3=C2C(=O)CC(C)(C)C3)cc1 (stereo not shown), COC(=O)c1cc(CNC(=O)c2cccc(Cl)c2Cl)ccc1OC is lower in “hERG current change (%, negative = inhibition) at 1uM” value: 17.4% for the first, -7.93% for the second.

Going from N#Cc1ccccc1OCCn1cncn1 to ClC(/C=N/n1cnnc1)=C/c1ccccc1, the “hERG current change (%, negative = inhibition) at 1uM” value falls from 17.1% to 12.5%.

First: O=C(CN1CCOCC1)Nc1scc(-c2ccccc2)c1C(=O)N1CCOCC1
Second: O=C(c1cccc(S(=O)(=O)N2CCOCC2)c1)N1CCN(c2ccccc2)CC1
The “hERG current change (%, negative = inhibition) at 1uM” value of the first is lower: 1.74% for the first, 5.7% for the second.

Compared with CN1CCN(/N=C/c2nc(-c3cccc([N+](=O)[O-])c3)n3ccccc23)CC1, O=C(CSc1nnc(-c2ccncc2)n1CC1CCCO1)Nc1ccccc1Cl (stereo not shown) is lower in “hERG current change (%, negative = inhibition) at 1uM” value: -1.73% for the first, -11.7% for the second.

First: CCSC(=O)N(CC)CC(=O)Nc1c(CC)cccc1CC
Second: CCN(CC)C(=S)NC(=O)c1ccc(F)cc1
The “hERG current change (%, negative = inhibition) at 1uM” value of the first is higher: 8.22% for the first, 7.73% for the second.

First: O=c1c2ccccc2nc(/C=C/c2cccnc2)n1CCc1ccccc1
Second: CC1(C)C2CCC1(CS(=O)(=O)N1CCN(c3ccccc3F)CC1)C(=O)C2 (stereo not shown)
The “hERG current change (%, negative = inhibition) at 1uM” value of the first is lower: -0.034% for the first, 19.9% for the second.
